In paper PMC11253624, “Unsaturated fatty acid perturbation combats emerging triazole antifungal resistance in the human fungal pathogen Aspergillus fumigatus” (mBio, 2024):

Assays:
[1] = tested on: Aspergillus fumigatus; test: FIC checkerboard synergy assay, A. fumigatus; conditions: for MIC: Aspergillus fumigatus
Experimental: For checkerboard synergy assays, serial twofold dilutions in the Y-axis were done with either voriconazole, fluconazole, or oleic acid for 4× the desired final concentration in 50 µL per well. Serial twofold dilutions of MBX-7591 were done in the X-axis for a 4× of the desired final concentration in 50 µL per well. Single-treatment controls were completed with 50 µL of media to substitute the volume of the other compound. Each well was then inoculated with 100 µL of a stock of 5 × 10^4 spores/mL of the appropriate strain, for a final concentration of 2.5 × 10^4 spores and to achieve the desired final compound testing concentrations. Additional untreated and media-only controls were added to the plate as described above. Incubation of the plates and MIC assessments (individual and in combination) were performed as described above. FIC calculations were done according to the established formula: ∑FIC=MIC combination compound A/MIC individual compound A + MIC combination compound B/MIC individual compound B . Synergy was considered equal or lower than 0.5, and antagonism was considered to be higher than 2. FIC scores reported represent between three and five biological replicates.

[2] = tested on: Aspergillus fumigatus; test: CLSI-based microbroth dilution MIC, A. fumigatus strains
Experimental: All antifungal susceptibility testing was done in 96-well plates using RPMI 1640 media buffered with 165 mM of MOPS and pH 7 using NaOH. CLSI-based microbroth dilution assays were done in accordance with M38 ([49]). Serial dilutions of the compound tested (voriconazole, MBX-7591) were done in the Y-axis of the plate, encompassing testing of 10 different concentrations. After serial dilutions, each well contained 100 µL of 2× of the desired final compound testing concentration. Each testing well was then inoculated with 100 µL of a stock of 5× 10^4 spores/mL of the appropriate strain, for a final concentration of 2.5 × 10^4 spores and to achieve the desired final compound testing concentrations. Additionally, an untreated control (100 µL of a stock of 5 × 10^4 spores/mL and 100 µL of media) and a media-only control (200 µL media) were included in the plate. The plate was covered in a Breathe-Eazy membrane to allow for uniform oxygen diffusion throughout the plate and incubated for 48 hours at 37°C, 5% CO2.

[3] = tested on: Cryptococcus neoformans; test: FIC checkerboard assay MBX-7591 and oleic acid, C. neoformans; type: cell-based
Experimental: Single-treatment controls were completed with 50 µL of media to substitute the volume of the other compound. […] Additional untreated and media-only controls were added to the plate as described above. Incubation of the plates and MIC assessments (individual and in combination) were performed as described above. FIC calculations were done according to the established formula: ∑FIC=MIC combination compound A/MIC individual compound A + MIC combination compound B/MIC individual compound B . Synergy was considered equal or lower than 0.5, and antagonism was considered to be higher than 2. FIC scores reported represent between three and five biological replicates. All antifungal susceptibility testing was done in 96-well plates using RPMI 1640 media buffered with 165 mM of MOPS and pH 7 using NaOH. CLSI-based microbroth dilution assays were done in accordance with M27 ([49]). […] Additionally, an untreated control (100 µL of a stock of 2 × 10^3 spores/mL and 100 µL of media) and a media-only control (200 µL media) were included in the plate. The plate was covered in a Breathe-Eazy membrane to allow for uniform oxygen diffusion throughout the plate and incubated for 24 hours at 35°C (Candida spp.) or 72 hours at 35°C ± 5% CO2 (Cryptococcus neoformans).

`O=C(c1ccsc1)N1CCC(Cc2ccc(COc3ccncc3)cc2)CC1` [MBX-7591] was tested, and the MIC ([1]; read-out: MIC MBX-7591, CEA10, without OA (OA checkerboard)) was 2.45 µg/mL, the MIC ([1]; read-out: MIC MBX-7591, strain CEA10, alone (FLC checkerboard)) was 2.45 µg/mL and the MIC ([1]; read-out: MIC MBX-7591, strain CEA10, alone (VCZ checkerboard)) was 2.45 µg/mL. For the same compound, the “MIC MBX-7591 combination” value ([1]; CEA10, with 7.81 μg/ml OA) was 9.81 µg/mL, the “MIC MBX-7591 combination” value ([1]; CEA10, with 15.63 μg/ml OA) was 19.63 µg/mL and 19.625 µg/mL and the “MIC MBX-7591 combination” value ([1]; CEA10, with 31.25 μg/ml OA) was > 19.63 µg/mL. For the same compound, the “MIC MBX-7591” value ([1]; CEA10, without OA (OA checkerboard)) was 2.453 µg/mL, the “MIC MBX-7591 in combination” value ([1]; strain 08-19-02-61, with VCZ) was 0.613 µg/mL and the “MIC MBX-7591 in combination” value ([1]; strain 08-31-08-91, with VCZ) was 1.227 µg/mL. The “MIC MBX-7591” value ([1]; strain CEA10, alone (VCZ checkerboard)) was 2.453 µg/mL, the “MIC MBX-7591 in combination” value ([1]; strain CEA10, with FLC) was 0.613 µg/mL and the “MIC MBX-7591 in combination” value ([1]; strain CEA10, with VCZ) was 0.613 µg/mL. For the same compound, the “MIC MBX-7591 in combination” value ([1]; strain F11628, with VCZ) was 0.613 µg/mL, the “MIC MBX-7591 in combination” value ([1]; strain F15390 (caf8), with VCZ) was 0.613 µg/mL and the MIC ([2]; ATCC46455, read-out: MIC MBX-7591) was 1.23 to 2.45 µg/mL (≈ 3.13 to 6.24 µM). It also gave an MIC ([2]; read-out: MIC MBX-7591) of 1.23 µg/mL (≈ 3.13 µM), an MIC ([2]; read-out: MIC MBX-7591, laboratory WT strains CEA10, AF293, AFS35, Table S6) of 2.45 µg/mL (≈ 6.24 µM) and an MIC ([2]; read-out: MIC MBX-7591, strain 08-19-02-10 (TR34/L98H)) of 4.91 µg/mL (≈ 12.5 µM). The MIC ([2]; read-out: MIC MBX-7591, strain 08-19-02-46 (TR34/L98H)) was 2.45 µg/mL (≈ 6.24 µM), the MIC ([2]; read-out: MIC MBX-7591, strain 08-19-02-61 (TR34/L98H), Table S6) was 2.45 µg/mL (≈ 6.24 µM) and the MIC ([2]; read-out: MIC MBX-7591, strain 08-31-08-91 (TR34/L98H), Table S6) was 4.91 µg/mL (≈ 12.5 µM). For the same compound, the MIC ([2]; read-out: MIC MBX-7591, strain 10-19-02-27 (TR34/L98H)) was 2.45 µg/mL (≈ 6.24 µM), the MIC ([2]; read-out: MIC MBX-7591, strain F11628 (G138C), Table S6) was 2.45 µg/mL (≈ 6.24 µM) and the MIC ([2]; read-out: MIC MBX-7591, strain F15390 (M220T), Table S6) was 2.45 µg/mL (≈ 6.24 µM). For the same compound, the MIC ([2]; read-out: MIC MBX-7591, strain RBH-AF-01) was 2.45 µg/mL (≈ 6.24 µM), the MIC ([2]; read-out: MIC MBX-7591, strain RBH-AF-02) was 2.45 µg/mL (≈ 6.24 µM) and the MIC ([2]; read-out: MIC MBX-7591, strain RBH-AF-03) was 2.45 µg/mL (≈ 6.24 µM). For the same compound, the MIC ([2]; read-out: MIC MBX-7591, strain RBH-AF-08) was 2.45 µg/mL (≈ 6.24 µM), the MIC ([3]; Cryptococcus neoformans, read-out: MIC MBX-7591) was 4.91 µg/mL and the “MIC MBX-7591 combination” value ([3]; H99, with 31.25 μg/ml OA, 5% CO2) was > 19.63 µg/mL.

≈ marks a conversion by molar mass, not a printed value. Where “and” joins values, the source holds several entries; their conditions need not be identical. Identical values can stand only once.
